PubChem BioAssay AID504832 (National Center for Advancing Translational Sciences (NCATS), 2011)
Among all 310,000 compounds or so, about 18,000 (5.8%) were called active. Inconclusive means that the source gave no clear call. Such entries were picked first, then a sample of the others. Calls follow the shape of the dose curve; as a rule, active = well fitted inhibition curve with a large enough effect; inconclusive = small, poorly fitted or top-dose-only effect, or another doubt; inactive = no such curve, though single readings can be large or run the other way. No potency is given beside an inconclusive call; the fits are too rough.

assay: Primary qHTS for delayed death inhibitors of the malarial parasite plastid, 48 hour incubation; settings: P. falciparum luciferase growth in erythrocytes; series mostly up to 28.7 µM
Summary of the method: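 Parasite viability was followed by luminescence of a genomically integrated firefly luciferase. Cultures held 0.1% parasitemia at 2% hematocrit (final), incubated under 5% CO2 at 37 C.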
% is scaled to controls: 0 for no effect and ±100 for the full control effect; potency is read from the fitted curve at half-maximal effect; tags tell the direction and shape of the fitted curve.

SMILES | Potency | activity change, negative = inhibition
CCOC(=O)N1CCN(C(=O)c2cc(S(=O)(=O)N3CCCC3)cn2C)CC1 | inactive | 
CCC(C(=O)NCCCN(CC)Cc1ccccc1)n1nc(C)c2sc3ccccc3c2c1=O (stereo not given) | active: 10.4 µM | 
Cc1cc(NC(=O)CCC(=O)N(CC(C)C)C(C(=O)NC(C)(C)C)c2ccccc2Cl)no1 (stereo not given) | inconclusive [inhibitor, partial curve] | 
CCCOc1ccc(-c2nnc(-c3ccncc3)o2)cc1 | inactive | 
COc1ccc(CNC(=O)C(=O)NCC2CCCN2S(=O)(=O)c2cccs2)cc1 (stereo not given) | inconclusive [inhibitor, single point] | 
Cc1ccc(C(=O)N/C(=C\c2ccc3c(c2)OCO3)C(=O)Nc2ccc(C(=O)O)cc2)cc1 | inactive | 
COc1ccc(NS(=O)(=O)c2cc(NC(=O)/C=C/c3cc(OC)c(OC)c(OC)c3)ccc2N2CCCCC2)cc1 | active: 1.17 µM | 
CC(C)(C)N(CC#CCC(O)(c1ccccc1)c1ccccc1)CCO | inconclusive [inhibitor, partial curve] | 
Cn1c(=O)c2ncn(CC(=O)NCCOCc3ccccc3Cl)c2n(C)c1=O | inactive | 
C[C@@]12CCC=C[C@H]1[C@H](c1ccc3ccccc3c1/C=C/c1ccccc1)N(Cc1ccccc1)C2=O | inconclusive [inhibitor, partial curve, poor fit] | 
COc1cc(OC)c(NC(=O)CN(C)S(=O)(=O)c2ccc3[nH]c(=O)oc3c2)cc1Cl | inactive | 
CCCOP(=O)(c1ccc(N(C)C)cc1)C(Nc1ccccc1)c1ccc(N(C)C)cc1 (stereo not given) | active: 2.62 µM | 
CSCCC(NC(=O)c1ccccc1)C(=O)N1CC(C)OC(C)C1 (stereo not given) | inactive | 
COc1ccc(N(CC(=O)NCCSc2ccc(C)cc2)S(=O)(=O)c2ccccc2)c(OC)c1 | inconclusive [inhibitor, single point] | 
O=C(Nc1ccccc1)Nc1ccc(C(=O)N2CCOCC2)cc1 | inactive | 
O=C(Cc1ccc(Cl)cc1)Nc1cc(S(=O)(=O)N2CCOCC2)ccc1N1CCCC1 | inactive | 
CCc1ccc(CN2CCN(c3ncccn3)CC2)cc1 | inconclusive [inhibitor, partial curve, poor fit] | 
COc1ccc(C2c3ccc4ccccc4c3Oc3ncn(CCN4CCOCC4)c(=N)c32)cc1OC (stereo not given) | active: 9.28 µM | 
CCN1C(=O)/C(=C/C=C2\N(CC)c3cc(S(=O)(=O)N(C)C)ccc3N2c2ccccc2)SC1=S | inconclusive [inhibitor, full curve, poor fit] | 
O=C(/C=C\c1ccccc1)Nc1ccc(NC(=O)c2ccco2)cc1 | inconclusive [inhibitor, single point] | 
FC(F)(F)c1cccc(N2CCN(C(=S)NCC3CCCO3)CC2)c1 (stereo not given) | inconclusive [inhibitor, partial curve, poor fit] | 
Cn1c2cc(Br)sc2c2cnn(Cc3ccc(F)cc3)c(=O)c21 | inconclusive [inhibitor, partial curve, poor fit] | 
Cc1ccc(C)c(N2CCN(CCCNC(=O)CCn3c(=O)c4cccn4c4cccnc43)CC2)c1 | inconclusive [inhibitor, single point] | 

SMILES | Potency | activity change, negative = inhibition
O=C(NC1CCCc2ccccc21)c1c(F)cccc1Cl (stereo not given) | inactive | 
CCOC(=O)CC(NC(=O)CCc1c(C)nc2nc(C)nn2c1C)c1ccc(C)cc1 (stereo not given) | inactive | 
CCOc1ccc(N(C)S(=O)(=O)c2ccc(C)c(C(=O)OCC(=O)c3c[nH]c4ccccc34)c2)cc1 | active: 13.1 µM | 
COc1ccc(Nc2ncnc3ccc(Br)cc23)cc1OC | inconclusive [inhibitor, single point] | 
COc1ccccc1CNC(=O)CCN=C1NS(=O)(=O)c2ccccc21 | inconclusive [inhibitor, single point] | 
CC1Cc2nc(SCC(=O)Nc3ccc4c(c3)OCO4)n(Cc3ccccc3)c(=O)c2S1 (stereo not given) | active: 2.33 µM | 
Cc1cc(C(=O)N/N=C/c2cccn2C)no1 | inactive | 
O=C(COC(=O)CCC(=O)c1cccs1)Nc1cccc(S(=O)(=O)N2CCOCC2)c1 | inconclusive [inhibitor, partial curve, poor fit] | 
CCOc1cc(/C=C2/C(=O)ON=C2C)ccc1O |  | inactive: 11.7% [at 0.00184 µM]
N#CCC(=O)Nc1ccc(C(=O)OCC(=O)NNC(=O)c2cccs2)cc1 | inactive | 
O=C1c2ccccc2S(=O)(=O)N1Cc1cc(=O)n2ccsc2n1 | inconclusive [inhibitor, partial curve] | 
COc1ccc(COCC(O)CN(Cc2ccco2)Cc2ccccc2O)cc1 (stereo not given) | active: 8.28 µM | 
COc1ccc(CCNC(=O)CC2SC(=NCc3ccccc3)NC2=O)cc1 (stereo not given) | inconclusive [inhibitor, partial curve, poor fit] | 
CCc1cc2cc(C)ccc2nc1SCC(=O)NC1CCCC1 | inconclusive [inhibitor, single point] | 
COc1ccc(C2C(C(=O)Nc3cc(C)on3)c3ccccc3C(=O)N2C)cc1OC (stereo not given) | inconclusive [inhibitor, single point] | 
CCC(=O)N1CCN(c2ccc(NC(=O)c3ccc(N4CCOCC4)c([N+](=O)[O-])c3)cc2)CC1 | inconclusive [inhibitor, partial curve, poor fit] | 
CCN(CC)c1ccc(/C=N/N2CCOCC2)c(O)c1 | inactive | 
Cc1ccc(C[n+]2c(-c3ccc(C)cc3)cc(-c3ccc(C)cc3)cc2-c2ccc(C)cc2)cc1 | active: 0.329 µM | 
Cc1ccc(-c2nc(CS(=O)CC(=O)NC3CCCC(C)C3C)c(C)o2)cc1 (stereo not given) | inactive | 
Nc1nc(CSc2nc3ccccc3s2)nc(N2CCCCC2)n1 | inconclusive [inhibitor, single point] | 
Fc1ccc(NC(=S)Nc2cccc3cnccc23)cc1 | inconclusive [inhibitor, single point] | 
OC(COC(c1ccc(F)cc1)c1ccc(F)cc1)CN1CCCC1 (stereo not given) | inconclusive [inhibitor, partial curve, poor fit] | 
